Reference: the antibiotic and cytotoxicity screens of Wong et al. (2023)
This is one part of the list.

Assays:
[1] = tested on: HSkMC (human skeletal muscle cells); experiment: cytotoxicity call (relative viability < 0.9); details: 10 µM
[2] = tested on: S. aureus RN4220; experiment: growth inhibition call (relative growth <= 0.2); details: 50 µM

Row | SMILES | cytotoxicity call [1] | growth inhibition call [2]
1 | C[C@H](CO)N1C[C@H](C)[C@@H](CN(C)C(=O)Nc2ccc(C(F)(F)F)cc2)OCCCC[C@H](C)Oc2ccc(NS(=O)(=O)c3ccc(F)cc3)cc2C1=O | inactive | inactive
2 | Cc1ccc(S(=O)(=O)N(C)C[C@H]2Oc3cc(C#Cc4ccccc4)ccc3S(=O)(=O)N([C@@H](C)CO)C[C@H]2C)cc1 | inactive | inactive
3 | C[C@@H]1CN([C@@H](C)CO)C(=O)Cc2cc(NC(=O)Nc3cccc4ccccc34)ccc2O[C@H]1CN(C)Cc1ccc(C(F)(F)F)cc1 | inactive | inactive
4 | CNC(=O)[C@H]1Cc2ccccc2N1C(=O)COC | inactive | inactive
5 | C[C@@H]1CN([C@@H](C)CO)C(=O)c2cc(NC(=O)Nc3ccc(F)cc3)ccc2O[C@@H](C)CCCCO[C@H]1CN(C)C(=O)CCCN(C)C | inactive | inactive
6 | O=C1NC(=O)[C@@H](c2ccccc2)N1 | inactive | inactive
7 | COc1ccc(NC(=O)Nc2cccc3c2O[C@H](CN(C)Cc2ccc(C(F)(F)F)cc2)[C@H](C)CN([C@@H](C)CO)C3=O)cc1 | inactive | inactive
8 | COc1ccc(CN(C)C[C@H]2OCCCC[C@H](C)Oc3ccc(NC(=O)Nc4cccc5ccccc45)cc3C(=O)N([C@H](C)CO)C[C@H]2C)cc1 | active | inactive
9 | C[C@H]1CN([C@@H](C)CO)S(=O)(=O)c2ccc(C#Cc3ccncc3)cc2O[C@H]1CN(C)C(=O)C1CCC1 | inactive | inactive
10 | COc1cccc(-c2cn(CC[C@@H]3CC[C@H](NC(=O)CN(C)C)[C@H](CO)O3)nn2)c1 | inactive | inactive
11 | C[C@H]1CCCCO[C@@H](CN(C)Cc2ccc3c(c2)OCO3)[C@@H](C)CN([C@@H](C)CO)C(=O)c2cc(NS(=O)(=O)c3ccccc3)ccc2O1 | inactive | inactive
12 | COc1ccc(-c2cn(CCNC(=O)[C@@H](NS(=O)(=O)c3ccc(C)cc3)C(C)C)nn2)cc1OC | inactive | inactive
13 | C[C@H]1CN([C@@H](C)CO)C(=O)c2cccc(NC(=O)Nc3ccc(F)cc3)c2O[C@@H]1CN(C)Cc1ccc(Cl)c(Cl)c1 | active | inactive
14 | Cc1noc(C)c1S(=O)(=O)Nc1ccc2c(c1)C(=O)N([C@H](C)CO)C[C@@H](C)[C@H](CN(C)C)OCCCC[C@@H](C)O2 | inactive | inactive
15 | C[C@H]1CCCCO[C@H](CN(C)Cc2ccc3c(c2)OCO3)[C@@H](C)CN([C@@H](C)CO)C(=O)c2cc(NC(=O)Nc3ccc4c(c3)OCO4)ccc2O1 | inactive | inactive
16 | C[C@H]1CCCCO[C@H](CN(C)Cc2ccc(C(F)(F)F)cc2)[C@@H](C)CN([C@@H](C)CO)C(=O)c2cc(NS(=O)(=O)c3ccccc3)ccc2O1 | inactive | inactive
17 | C[C@H](CO)N1C[C@H](C)[C@@H](CN(C)CC2CCCCC2)Oc2ccc(NC(=O)Nc3ccc(F)cc3)cc2CC1=O | inactive | inactive
18 | CC(C)NC(=O)Nc1ccc2c(c1)C(=O)N([C@H](C)CO)C[C@@H](C)[C@H](CN(C)CC1CCCCC1)OCCCC[C@H](C)O2 | inactive | inactive
19 | O=C(C[C@@H]1C[C@@H]2c3cc(NC(=O)Nc4ccc(C(F)(F)F)cc4)ccc3O[C@@H]2[C@@H](CO)O1)NC1CCCCC1 | inactive | inactive
20 | O=C1/C(=C/c2cn(-c3ccccc3)nc2-c2ccc(OCc3ccc(Cl)cc3)cc2)SC(=S)N1CCS(=O)(=O)O | inactive | inactive

Row | SMILES | cytotoxicity call [1] | growth inhibition call [2]
21 | COc1ccc(NC(=O)N(C)C[C@@H]2Oc3ccc(NC(=O)CCCCCC(=O)Nc4ccccc4N)cc3CC(=O)N([C@@H](C)CO)C[C@@H]2C)cc1 | inactive | inactive
22 | C[C@H]1CCCCO[C@@H](CN(C)Cc2ccc3c(c2)OCO3)[C@@H](C)CN([C@@H](C)CO)C(=O)c2cc(NC(=O)Nc3ccc4c(c3)OCO4)ccc2O1 | inactive | inactive
23 | Cc1noc(C)c1NC(=O)N(C)C[C@@H]1Oc2ccc(NC(=O)c3ccncc3)cc2C(=O)N([C@H](C)CO)C[C@H]1C | inactive | inactive
24 | CC(C)NC(=O)N(C)C[C@H]1Oc2ccc(NC(=O)Cc3ccccc3)cc2CC(=O)N([C@H](C)CO)C[C@H]1C | inactive | inactive
25 | O=C(Cc1ccc2c(c1)OCO2)N[C@@H]1CCNC[C@H]1O | inactive | inactive
26 | C[C@@H]1CN([C@H](C)CO)C(=O)c2cc(C#C[C@@H](C)O)cnc2O[C@@H]1CN(C)C(=O)CN1CCOCC1 | inactive | inactive
27 | COc1cccc(-c2ccc3n(c2=O)C[C@H]2[C@H](CO)[C@@H](C(=O)NCC4CC4)[C@@H]3N2S(C)(=O)=O)c1 | inactive | inactive
28 | Cc1noc(C)c1NC(=O)N(C)C[C@H]1Oc2ccc(NC(=O)NC(C)C)cc2CC(=O)N([C@H](C)CO)C[C@H]1C | inactive | inactive
29 | COc1ccc2c3c([nH]c2c1)[C@@H](CO)N(C[C@]13CN(C1)S(=O)(=O)c1cn(cn1)C)C(=O)Nc1ccc(cc1)F | inactive | inactive
30 | C[C@H]1CN([C@@H](C)CO)C(=O)c2cc(NS(=O)(=O)c3ccc(Cl)cc3)ccc2O[C@H]1CN(C)Cc1ccc(C(F)(F)F)cc1 | inactive | inactive
31 | CCCNC(=O)C[C@@H]1CC[C@H]2[C@@H](COC[C@@H](O)CN2S(=O)(=O)c2ccc(Oc3ccccc3)cc2)O1 | inactive | inactive
32 | C[C@H]1CN([C@@H](C)CO)C(=O)Cc2cc(NS(=O)(=O)c3cccs3)ccc2O[C@H]1CN(C)Cc1ccncc1 | inactive | inactive
33 | C1CC(N2CCNCC2)C1 | inactive | inactive
34 | CC1(C)CCC2(C(=O)O)CCC3(C)C(=CCC4C5(C)CCC(O)C(C)(CO)C5CCC43C)C2C1 (stereo not drawn) | inactive | inactive
35 | COc1ccc2c(=O)cc(-c3ccccc3OC)oc2c1 | inactive | inactive
36 | Nc1nnc(C(=O)N2CCCCC2)[nH]1 | inactive | inactive
37 | C[C@H]1[C@H]([Si](C)(C)F)[C@@H](CCO)O[C@]12C(=O)N(Cc1cccc(N3C(=O)COc4ccccc43)c1)c1ccccc12 | inactive | inactive
38 | C[C@@H]1CN([C@@H](C)CO)C(=O)Cc2cc(NS(=O)(=O)c3cn(C)cn3)ccc2O[C@@H]1CN(C)S(=O)(=O)c1ccc(Cl)cc1 | inactive | inactive
39 | COCOC[C@H](C)N1C[C@@H](C)[C@H](CN(C)S(=O)(=O)c2ccc(F)cc2)OCCCC[C@H](C)Oc2ccc(NC(=O)Nc3ccccc3)cc2C1=O | inactive | inactive
40 | Cc1ccc(-c2ccc3c(c2)O[C@H](CN(C)C(=O)NC(C)C)[C@H](C)CN([C@@H](C)CO)S3(=O)=O)cc1 | inactive | inactive

Row | SMILES | cytotoxicity call [1] | growth inhibition call [2]
41 | C[C@@H]1CCCCO[C@H](CN(C)Cc2ccccc2)[C@@H](C)CN([C@H](C)CO)C(=O)c2cc(NC(=O)c3ccncc3)ccc2O1 | inactive | inactive
42 | C[C@H](CO)N1C[C@H](C)[C@@H](CN(C)Cc2ccc(C(F)(F)F)cc2)OCCCC[C@H](C)Oc2ccc(NC(=O)C3CCCCC3)cc2C1=O | inactive | inactive
43 | C[C@@H]1CN([C@@H](C)CO)C(=O)c2cccc(NS(=O)(=O)c3ccccc3)c2O[C@@H]1CN(C)S(=O)(=O)c1cn(C)cn1 | inactive | inactive
44 | Cc1ccc(S(=O)(=O)N2C[C@H](O)COC[C@@H]3O[C@@H](CC(=O)N[C@@H]4CCN(Cc5ccccc5)C4)CC[C@H]32)cc1 | inactive | inactive
45 | C[n+]1ccn(C[C@@]2(C)[C@H](C(=O)O)N3C(=O)C[C@H]3S2(=O)=O)n1 | inactive | active
46 | C[C@@H]1CN([C@@H](C)CO)S(=O)(=O)c2ccc(C#CCN(C)C)cc2O[C@H]1CN(C)Cc1ccccc1F | inactive | inactive
47 | C[C@H]1CN([C@@H](C)CO)C(=O)c2cc(NS(=O)(=O)c3ccc(Cl)cc3)ccc2O[C@@H]1CN(C)Cc1ccc(C(F)(F)F)cc1 | active | inactive
48 | C[C@H](NC(=O)[C@@H](Cc1ccc2ccccc2c1)NC(=O)[C@@H](C)N)C(=O)N[C@@H](Cc1c[nH]c2ccccc12)C(=O)N[C@H](Cc1ccccc1)C(=O)N[C@@H](CCCCN)C(N)=O | inactive | inactive
49 | C[C@H]1CN([C@@H](C)CO)C(=O)c2cccc(NC(=O)c3ccncc3)c2O[C@H]1CN(C)S(=O)(=O)c1ccccc1 | inactive | inactive
50 | C[C@H](CO)N1C[C@H](C)[C@@H](CN(C)S(C)(=O)=O)Oc2ccc(NC(=O)Nc3ccc(C(F)(F)F)cc3)cc2CC1=O | inactive | inactive
51 | CCS(=O)(=O)NCC[C@@H]1CC[C@@H](NC(=O)Cc2ccccn2)[C@@H](CO)O1 | inactive | inactive
52 | CC(C)NC(=O)[C@@H]1c2ccccc2C(=O)N(Cc2cc(F)cc(C(F)(F)F)c2)[C@H]1c1ccc(CO)cc1 | inactive | inactive
53 | CN1C(=O)c2cc(NC(=O)c3cscn3)ccc2OC[C@@H]2O[C@H](CC(=O)N3CCOCC3)CC[C@@H]21 | inactive | inactive
54 | O=C(Nc1nccs1)[C@H]1[C@H](CO)[C@H]2Cn3c(cccc3=O)[C@@H]1N2C(=O)C1CC1 | inactive | inactive
55 | CC(C)NC(=O)Nc1ccc2c(c1)CC(=O)N([C@@H](C)CO)C[C@H](C)[C@@H](CN(C)Cc1ccc3c(c1)OCO3)O2 | inactive | inactive
56 | C[C@H](CO)N1C[C@H](C)[C@@H](CN(C)Cc2ccc3c(c2)OCO3)OCCCC[C@H](C)Oc2ccc(NC(=O)Nc3ccc4c(c3)OCO4)cc2C1=O | inactive | inactive
57 | O=C(O)/C=C\C(=O)NCc1ccccc1 | inactive | inactive
58 | C[C@H](NC(=O)C[C@H]1C[C@@H]2c3cc(NC(=O)Nc4ccc(C(F)(F)F)cc4)ccc3O[C@@H]2[C@@H](CO)O1)c1ccccc1 | inactive | inactive
59 | C[C@@H]1CCCCO[C@@H](CN(C)C(=O)NC2CCCCC2)[C@H](C)CN([C@@H](C)CO)C(=O)c2cc(NC(=O)c3ccncc3)ccc2O1 | inactive | inactive
